From PubChem BioAssay AID1346428 (National Center for Advancing Translational Sciences (NCATS), 2018)
Where “and” joins values, the source holds several entries; their conditions need not be identical. Equal entries are not always repeated. Among all 48,000 compounds or so, about 1,200 (2.5%) were called active. Roughly 2% stayed inconclusive and do not appear here.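 The calls were made as follows: active = activation of at least 60% and not above a set upper limit (about 1 call in 100 departs from these limits); inconclusive = activation of 40% to 60%, or above that upper limit; inactive = activation under 40%.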 The list shows a part of the results.
Also: 0% is about no effect.

The molecules below were run against Probable G-protein coupled receptor 32 (Homo sapiens) (UniProt O75388) (assay: qHTS for Agonists of Human Resolvin D1 Receptor DRV1). Conditions: CHO-K1 GPR32 beta-arrestin PathHunter luminescence, 90 min; at 76.9 µM; active compounds read high; zero percent set by DMSO-only wells.
UniProt O75388, sequence (O75388 whole entry, looked up, the tested form may be a part): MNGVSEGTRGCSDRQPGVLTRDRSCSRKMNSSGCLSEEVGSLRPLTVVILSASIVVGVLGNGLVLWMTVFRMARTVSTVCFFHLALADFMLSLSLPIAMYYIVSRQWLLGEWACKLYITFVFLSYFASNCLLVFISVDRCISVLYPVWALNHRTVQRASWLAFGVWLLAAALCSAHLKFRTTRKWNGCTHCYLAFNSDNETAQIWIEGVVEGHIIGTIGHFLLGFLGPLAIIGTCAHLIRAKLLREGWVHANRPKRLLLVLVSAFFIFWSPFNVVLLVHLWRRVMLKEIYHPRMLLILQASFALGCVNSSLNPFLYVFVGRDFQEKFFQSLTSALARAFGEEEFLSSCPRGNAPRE
In short: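 Agonism was scored as beta-arrestin recruitment to ProLink-fused GPR32 in stably transfected CHO-K1 cells, giving a chemiluminescent beta-Gal signal; compounds were incubated 90 min at 37 °C.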
For `Cc1ccc(CN2C(=O)C(=O)c3cc(Br)cc(C)c32)cc1`, the activation was inactive: -52.6%.
With `CCN1C(=O)N(c2ccc(C(C)=O)cc2)S(=O)(=O)c2ccccc21` the activation was inactive: -4.11%.
`CSc1ccc(CCNC(=O)Cn2ncn3c(cc4ccccc43)c2=O)cc1` was tested, and the activation was inactive: -3.36%.
`Cn1nc(-c2ccc(OCC(=O)Nc3ccc(Cl)cc3)cc2)c2ccccc2c1=O` was tested, and the activation was inactive: -2.1%.
`CCN(C(=O)c1cc2c(=O)n(CC)c3ccccc3c2s1)c1cccc(C(F)(F)F)c1` was tested, and the activation was inactive: 14.7%.
`COc1ccc(Br)cc1CNC(=O)c1cnc2sc(N3CCCCCC3)nn2c1=O` was tested, and the activation was inactive: -13.4%.
In the case of `Cc1ccc2c(c1)cc1c(=O)n(CC(=O)NC(C)CCc3ccccc3)nc(C)n12` (configuration not stated), the activation was inactive: 2.74%.
`CC1CCN(c2ccc(-c3cccc(NS(=O)(=O)c4cccs4)c3)nn2)CC1` was tested, and the activation was inactive: -9.8%.
For `O=C(NCc1cccs1)c1ccc(CSc2nc3cccnc3n2Cc2ccc(F)cc2)cc1`, the activation was inactive: -11.6%.
With `COc1ccc(-c2nn(-c3ccc(F)cc3)c3c2cnc2cc4c(cc23)OCO4)cc1` the activation was inactive: -0.0814%.
`COc1ccccc1CNc1ccc(-c2nc(-c3ccccc3C)no2)cc1[N+](=O)[O-]` was tested, and the activation was inactive: -6.7%.
`CCc1ccccc1NC(=O)CSc1nc2n[nH]c(C)c2c(=N)n1-c1cccc(C)c1` was tested, and the activation was inactive: -14.2%.
For `Cn1c2c(c(=O)n(C)c1=O)C(c1ccccc1[N+](=O)[O-])CC(=O)N2` (configuration not stated), the activation was inactive: -21.1%.
For `CC1CCn2c(nc3cc(C(=O)NCc4ccc(F)cc4)ccc32)C1` (configuration not stated), the activation was inactive: -11%.
With `Cc1cc(C)cc(NC(=O)C2CCN(C(=O)c3cnn(-c4ccccc4)c3-n3cccc3)CC2)c1` the activation was inactive: 6.48%.
In the case of `CCOc1nc(NC(=O)NS(=O)(=O)Oc2cccc(Cl)c2)nc(-c2ccccc2)n1`, the activation was inactive: 10.9%.
With `O=C(Nc1ccc(F)c(F)c1)c1cc(S(=O)(=O)NCc2ccc3c(c2)OCO3)ccc1F` the activation was inactive: 35.3%.
`CCCCC(=O)Nc1nnc(SCc2cc(=O)n3cc(C)ccc3n2)s1` was tested, and the activation was inactive: -8.28%.
In the case of `CCOC(=O)c1nn2c(C(F)(F)F)cc(-c3ccc(C)cc3)nc2c1Cl`, the activation was inactive: -1.17%.
For `Cc1ccc(CNC(=O)CSc2nc(=O)n(Cc3ccco3)c3c2CCC3)cc1`, the activation was inactive: -2.21%.
With `COc1ccc(-c2c(C#N)c(SCC(=O)Nc3ccc(C)cc3)nc(C)c2C(=O)Nc2ccccc2)cc1` the activation was inactive: -4.25%.
With `COc1cccc(CNC(=O)CN2CCCN(Cc3ccccc3)S2(=O)=O)c1` the activation was inactive: 10.5%.
For `Cc1ccn2c(Nc3ccc4c(c3)OCO4)c(-c3ccc(Cl)cc3)nc2c1`, the activation was inactive: -18.7%.
With `COc1ccc(C2=NC3(CCCCCC3)N(CC(=O)Nc3cccc(Cl)c3)C2=O)cc1` the activation was inactive: -43.9%.
With `CC(C)(C)NCC(O)c1ccc(O)c(CO)c1` (configuration not stated) the activation was inactive: -1.33% and inactive: -7.91% and inactive: -8.85%.
`COc1ccc(C(=O)c2oc3ccccc3c2NC(=O)COc2ccc(C)cc2)cc1` was tested, and the activation was inactive: -8.49%.
With `CCN1CCN(c2c(S(=O)(=O)c3ccc(Cl)cc3)cnc3ccccc23)CC1` the activation was inactive: -13.4%.
`Cc1ccc(NC(=O)Cn2c(=O)n(CCCS(=O)(=O)C3CCCCC3)c(=O)c3ccccc32)cc1F` was tested, and the activation was inactive: -9.16%.
With `CC(NC(=O)c1ccc(Cn2c(=O)c3cccn3c3cccnc32)cc1)c1ccccc1` (configuration not stated) the activation was inactive: -19.6%.
In the case of `COc1ccc(S(=O)(=O)c2cc3cc(OC)ccc3oc2=O)cc1`, the activation was inactive: -1.51%.
With `[N-]=[N+]=Nc1ccc(C(=O)CSC[C@H](NC(=O)CC[C@H](N)C(=O)O)C(=O)NCC(=O)O)cc1` the activation was inactive: 1.43%.
For `CCc1ccccc1NC(=O)N1CCc2cc(OC)c(OC)cc2C1CC(=O)OC` (configuration not stated), the activation was inactive: -12.6%.
In the case of `Cc1ccc(C)c(Nc2nc3c(S(=O)(=O)c4ccc(Br)cc4)nnn3c3ccsc23)c1`, the activation was inactive: -23%.
`Cn1c(=O)c2c(-c3ccccc3Cl)n(Cc3ccc(Cl)cc3)cc2n(C)c1=O` was tested, and the activation was inactive: -14.4%.
`Cc1cccc(N2CCN(C(=O)CCC(=O)NNc3nc4ccccc4c4nc(C)nn34)CC2C)c1` (configuration not stated) was tested, and the activation was inactive: -17.2%.
`CCC1CN(S(=O)(=O)c2ccc3c(c2)NC(=O)CC(=O)N3)c2cc(Cl)ccc2O1` (configuration not stated) was tested, and the activation was inactive: -11.1%.
In the case of `CCN1CCN(c2cc(-c3ccc(F)cc3)c3c(n2)CCCCCC3)CC1`, the activation was inactive: -0.798%.
For `CCc1ccccc1NC(=O)CN1C(=O)COc2ccc(S(=O)(=O)Nc3ccccc3)cc21`, the activation was inactive: -0.0377%.
For `COc1cc(C2c3c(-c4c(C)cc(C)cc4O)n[nH]c3C(=O)N2CCCOC(C)C)cc(OC)c1OC` (configuration not stated), the activation was inactive: 32.2%.
In the case of `COc1ccc(-c2nc3c(C#N)c[nH]n3c2NC2CCCC2)cc1`, the activation was inactive: -27.6%.
For `COc1ccccc1Cc1nc2ccccc2nc1SCC(=O)Nc1ccccc1C(F)(F)F`, the activation was inactive: -10.8%.
With `CCOc1ccc(CNCc2c(C(=O)O)n(Cc3ccc(OC)cc3)c3ccccc23)cc1` the activation was inactive: 5%.
For `Cc1ccc(N2CC(c3nnc(Cc4ccccc4Cl)o3)CC2=O)cc1` (configuration not stated), the activation was inactive: -8.86%.
With `COc1ccc(N(C(=O)c2ccc(Cl)cc2)S(=O)(=O)c2ccc(C)cc2)cc1` the activation was inactive: -10.4%.
In the case of `COc1ccc(S(=O)(=O)n2nc(-c3ccco3)nc2NCc2ccc(OC)c(OC)c2)cc1`, the activation was inactive: -11.8%.
In the case of `O=C(CSc1cn(CCNC(=O)c2ccccc2F)c2ccccc12)Nc1ccc(F)cc1`, the activation was active: 91.1%.
`COc1cccc(N2C(=O)CSC23C(=O)N(CC(=O)Nc2cccc(Cl)c2)c2ccccc23)c1` (configuration not stated) was tested, and the activation was inactive: -14.8%.
`CCn1c(C)c(C)c2cc(C(=O)N3CCN(c4cccc(C)c4C)CC3)ccc21` was tested, and the activation was inactive: -35.3%.
`COc1cccc(-n2c(-c3ccco3)nc3c(cnn3-c3ccc(Cl)cc3)c2=O)c1` was tested, and the activation was inactive: -1.15%.
With `COc1cc(CN(C(=O)COc2ccccc2Cl)c2ccccn2)cc(OC)c1OC` the activation was inactive: -15.3%.
With `CCC(=O)Nc1ccc2nc(SCc3ccccc3)sc2c1` the activation was inactive: -9.7%.
`COc1ccc(CC(=O)Nc2cc(-c3nc4cccnc4s3)ccc2C)cc1` was tested, and the activation was inactive: -20.1%.
